# Laboratory results reported in the supplement of paper PMC10369915.
# The other results are listed elsewhere or left out. No stated cut-off is given here; in the data, active = 3.2 or more and inactive = the rest. The signal is at background level for most entries.
# B1: CLCA1_Y665 (peptide)
# chain: RYFTTYDTNGR
# B2: CKAP5_Y1854_K1857Q_YF (peptide)
# chain: GLAELYEFQKK
# B3: CLEC12A_Y242 (peptide)
# chain: YYHCTYKKRMI
# B4: CLIP2_Y972 (peptide)
# chain: SDQRRYSLIDR
# B5: CLK1_Y305_YF (peptide)
# chain: DFTEAYNPKIK
# B6: CLCNKB_Y93 (peptide)
# chain: SHLLRYLSWTV
# B7: CHST6_Y362_YF (peptide)
# chain: GFRPVYSEDEQ
# B8: CHST6_Y358 (peptide)
# chain: LQLLGYRPVYS
# B9: CLOCK_Y378 (peptide)
# chain: HTVVSYAEVRA
# B10: CLCA1_Y661_Y661H_YF (peptide)
# chain: GVFSRHFTTFD
# B11: CHST6_Y358_Y358H (peptide)
# chain: LQLLGHRPVYS
# B12: CKB_Y174_YF (peptide)
# chain: LAGRFYALKSM
# B13: CKAP5_Y1854_K1857Q (peptide)
# chain: GLAELYEYQKK
# B14: CLCN4_Y548 (peptide)
# chain: TGGLEYIVPLM
# B15: CLRN1_Y171 (peptide)
# chain: EKIANYKEGTY
# B16: CLDN14_Y233_G232R (peptide)
# chain: ATHSRYRLNDY
# B17: CKAP5_Y1854 (peptide)
# chain: GLAELYEYKKK
# B18: CLSPN_Y887 (peptide)
# chain: NHRNQYQALKP
# B19: CKM_Y125 (peptide)
# chain: DLDPNYVLSSR
# B20: CHST6_Y358_Y358D_YF (peptide)
# chain: LQLLGDRPVFS
# B21: CLNS1A_Y214_M218T (peptide)
# chain: DSIRDYEDGTE
# B22: CHST6_Y168 (peptide)
# chain: EACRSYSHVVL
# B23: CLCA1_Y147 (peptide)
# chain: KKLAEYGPQGR
# B24: CLCNKB_Y93_S88R (peptide)
# chain: RHLLRYLSWTV
# B25: CLDN7_Y195_V197A (peptide)
# chain: ESKAGYRAPRS
# B26: CLDN14_Y233_G232R_YF (peptide)
# chain: ATHSRYRLNDF
# B27: CKB_Y173_K177R_YF (peptide)
# chain: DLAGRYFALRS
# B28: CLNK_Y69 (peptide)
# chain: HSDDDYDDPEL
# B29: CLEC12A_Y242_YF (peptide)
# chain: FFHCTYKKRMI
# B30: CKAP5_Y1854_YF (peptide)
# chain: GLAELYEFKKK
# B31: CKB_Y173_YF (peptide)
# chain: DLAGRYFALKS
# B32: CKB_Y174_K177R (peptide)
# chain: LAGRYYALRSM
# B33: CLEC12B_Y7_T6N (peptide)
# chain: SEEVNYATLTF
# B34: CLK1_Y305 (peptide)
# chain: DYTEAYNPKIK
# B35: CKAP5_Y1860_K1857Q_YF (peptide)
# chain: EFQKKYSDADI
# B36: CLIC5_Y111_T114A (peptide)
# chain: SMEGLYSSAQD
# B37: CLK1_Y305_P307S (peptide)
# chain: DYTEAYNSKIK
# Key:
# Assay in all cases: enrichment score (SH2-bound / input frequency) (ratio); bacterial display of known human phosphotyrosine sites (pTyr-Var adds point mutants) read by sequencing; higher = stronger binding; tyrosines were phosphorylated by kinases first
# Settings in all cases: peptide library: pTyr-Var
# SHP2 C-SH2 domain E139D = target: SHP2 C-SH2 domain E139D
# [1] = target: SHP2 C-SH2 domain wild-type
# SHP2 N-SH2 domain L43F = target: SHP2 N-SH2 domain L43F
# SHP2 N-SH2 domain T42A = target: SHP2 N-SH2 domain T42A
# SHP2 N-SH2 domain T52S = target: SHP2 N-SH2 domain T52S
# [2] = target: SHP2 N-SH2 domain wild-type
# 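Further: displayed peptides selected on beads carrying the immobilized SH2 domain, with library peptides lacking any tyrosine serving as negative controls.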
Binder,enrichment score (SHP2 C-SH2 domain E139D),enrichment score [1],enrichment score (SHP2 N-SH2 domain L43F),enrichment score (SHP2 N-SH2 domain T42A),enrichment score (SHP2 N-SH2 domain T52S),enrichment score [2]
B1,inactive: 0.806,inactive: 1.09,inactive: 0.85,inactive: 0.557,inactive: 0.648,inactive: 0.649
B2,inactive: 0.991,inactive: 0.571,inactive: 0.725,inactive: 0.41,inactive: 0.883,inactive: 0.688
B3,inactive: 2.25,inactive: 2.36,inactive: 2.3,inactive: 2.06,inactive: 2.21,inactive: 2.44
B4,inactive: 0.646,inactive: 0.654,inactive: 0.52,inactive: 0.475,inactive: 0.705,inactive: 0.77
B5,inactive: 0.703,inactive: 0.697,inactive: 0.752,inactive: 0.457,inactive: 0.569,inactive: 0.539
B6,inactive: 1.29,inactive: 1.17,inactive: 1.31,inactive: 1.04,inactive: 1.27,inactive: 1.28
B7,inactive: 0.902,inactive: 0.77,inactive: 0.715,inactive: 0.769,inactive: 0.752,inactive: 0.965
B8,inactive: 1.18,inactive: 1.26,inactive: 1.2,inactive: 1.12,inactive: 1.42,inactive: 1.31
B9,inactive: 2.12,active: 3.48,active: 3.49,active: 6.57,active: 3.6,inactive: 1.8
B10,inactive: 0.518,inactive: 2.48,inactive: 0.497,inactive: 1.91,inactive: 2.49,
B11,inactive: 1.51,inactive: 1.08,inactive: 1.39,inactive: 1.13,inactive: 1.58,inactive: 1.29
B12,inactive: 2.14,inactive: 1.82,inactive: 1.76,inactive: 1.58,inactive: 1.84,inactive: 2.3
B13,inactive: 1.32,inactive: 1.18,inactive: 1.11,inactive: 0.793,inactive: 1.17,inactive: 1.44
B14,inactive: 0.785,inactive: 0.831,inactive: 1.05,inactive: 0.839,inactive: 1.14,inactive: 0.812
B15,inactive: 0.566,inactive: 0.524,inactive: 0.607,inactive: 0.506,inactive: 0.551,inactive: 0.577
B16,inactive: 0.963,inactive: 0.872,inactive: 0.901,inactive: 1.2,inactive: 0.812,inactive: 0.955
B17,inactive: 0.962,inactive: 0.898,inactive: 0.689,inactive: 0.778,inactive: 0.87,inactive: 0.664
B18,inactive: 0.889,inactive: 0.8,inactive: 0.923,inactive: 0.838,inactive: 0.93,inactive: 0.911
B19,inactive: 0.717,inactive: 0.692,inactive: 0.853,inactive: 0.569,inactive: 0.734,inactive: 0.981

Binder,enrichment score (SHP2 C-SH2 domain E139D),enrichment score [1],enrichment score (SHP2 N-SH2 domain L43F),enrichment score (SHP2 N-SH2 domain T42A),enrichment score (SHP2 N-SH2 domain T52S),enrichment score [2]
B20,inactive: 1.11,inactive: 1.04,inactive: 1.09,inactive: 1.08,inactive: 1,inactive: 1.23
B21,inactive: 0.405,inactive: 0.452,inactive: 0.554,inactive: 0.39,inactive: 0.495,inactive: 0.523
B22,inactive: 0.681,inactive: 0.913,inactive: 0.618,inactive: 1.15,inactive: 0.714,inactive: 0.604
B23,inactive: 0.588,inactive: 0.558,inactive: 0.479,inactive: 0.502,inactive: 0.503,inactive: 0.633
B24,inactive: 3.04,inactive: 2.61,inactive: 2.74,inactive: 2.52,inactive: 2.69,inactive: 2.74
B25,inactive: 0.446,inactive: 0.518,inactive: 0.578,inactive: 0.415,inactive: 0.499,inactive: 0.53
B26,inactive: 0.972,inactive: 0.864,inactive: 1.05,inactive: 0.602,inactive: 0.855,inactive: 0.87
B27,inactive: 0.899,inactive: 0.786,inactive: 0.944,inactive: 0.822,inactive: 0.874,inactive: 0.941
B28,inactive: 0.458,inactive: 0.401,inactive: 0.41,inactive: 0.456,inactive: 0.418,inactive: 0.499
B29,inactive: 2.62,inactive: 2.6,inactive: 2.17,inactive: 2.17,inactive: 1.9,inactive: 2.1
B30,inactive: 0.78,inactive: 0.496,inactive: 0.573,inactive: 0.607,inactive: 0.581,inactive: 0.807
B31,inactive: 0.971,inactive: 0.939,inactive: 0.977,inactive: 0.797,inactive: 0.812,inactive: 0.901
B32,inactive: 1.71,inactive: 2.16,inactive: 1.75,inactive: 1.24,inactive: 1.53,inactive: 1.33
B33,inactive: 1.18,inactive: 1.67,inactive: 2.43,inactive: 2.87,inactive: 2.29,inactive: 1.45
B34,inactive: 0.638,inactive: 0.571,inactive: 0.579,inactive: 0.475,inactive: 0.903,inactive: 0.695
B35,inactive: 0.511,inactive: 0.516,inactive: 0.591,inactive: 0.512,inactive: 0.478,inactive: 0.603
B36,inactive: 0.889,inactive: 0.874,inactive: 0.847,inactive: 0.807,inactive: 0.872,inactive: 0.939
B37,inactive: 0.689,inactive: 0.561,inactive: 0.869,inactive: 0.628,inactive: 0.555,inactive: 0.713
